Data published in PubChem BioAssay (NCATS).
This list was built around the results that the source calls inconclusive (neither active nor inactive); the mix of calls is not that of the screen. Potencies of inconclusive entries are left out as doubtful fits. Active and inactive are the calls of the source. Calls follow the shape of the dose curve; as a rule, active = well fitted inhibition curve with a large enough effect; inconclusive = small, poorly fitted or top-dose-only effect; inactive = no such curve, though single readings can be large or run the other way.

Assay: NS1 protein of Zika virus - qHTS assay to identify small molecule inhibitors in human HEK 293 cells (AID 1347053); also: nearly all actives have a fitted effect of over 55% in size
Conditions: HEK293 ZIKV MR766 infection, NS1 TR-FRET, 24 h; series mostly up to 46.1 µM
Summary of the method: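 HEK 293; 20 h pre-culture, 37 C/5% CO2; cpd 1 h pre-infection; ZIKV MR766, MOI = 0.5, 24 h, 37 C; TR-FRET NS1 readout (two anti-NS1 Abs); norm. to no-virus vs infected.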
Potency is read from the fitted curve at half-maximal effect; tags tell the direction and shape of the fitted curve.

SMILES	Potency
CCNc1nc(Cl)nc(NCC)n1	inactive
ClCc1cccc(Cl)c1	inactive
NN=C(N)N	inactive
C=C[C@@H]1CN2CCC1C[C@H]2[C@H](O)c1ccnc2ccccc12 (some centres not stated)	inconclusive [inhibitor, single point]
COc1cc(C[C@@H](C)N)c(OC)cc1Br	inactive
OC(c1ccccc1)(c1ccccc1)C1CCNCC1	inactive
Cc1ncc(CNC(=O)N(CCCl)N=O)c(N)n1	inconclusive [inhibitor, partial curve, poor fit]
CCOC(=O)C1(c2ccccc2)CCN(CCC(C#N)(c2ccccc2)c2ccccc2)CC1	inconclusive [inhibitor, full curve, poor fit]
Cc1cc(O)ccc1Cl	inactive
CCCCC1C(=O)NC(=O)N(C2CCCCC2)C1=O (configuration not stated)	inconclusive [inhibitor, partial curve, poor fit]
O=c1[nH]c2ccccc2n1C1CCNCC1	inactive
c1ccc(N2CCNCC2)cc1	inactive
c1ccc2c(c1)Sc1ccccc1N2CC1CN2CCC1CC2 (configuration not stated)	active: 3.16 µM
CN(C)CCc1c[nH]c2ccc(O)cc12	inconclusive [inhibitor, partial curve, poor fit]
CCOCCOC(C)=O	inactive
NC(=O)OCCCc1ccccc1	inactive
CS(=O)(=O)c1ccc(C(=O)C2C(=O)CCCC2=O)c([N+](=O)[O-])c1	inactive
